In PubChem BioAssay AID504832 (National Center for Advancing Translational Sciences (NCATS), 2011):
Out of some 310,000 compounds screened, about 18,000 (5.8%) were called active. Inconclusive results, whose numbers are uncertain, are shown with a selection of clear calls. The call rests on the fitted dose curve; in most records, active means well fitted inhibition curve with a large enough effect; inconclusive means small, poorly fitted or top-dose-only effect, or another doubt; inactive means no such curve, though single readings can be large or run the other way. No potency is given beside an inconclusive call; the fits are too rough. A structure can be active in one record and inactive in another.

assay: Primary qHTS for delayed death inhibitors of the malarial parasite plastid, 48 hour incubation; conditions: P. falciparum luciferase growth in erythrocytes; series mostly up to 28.7 µM
Outline: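 A one-generation exposure of luciferase-tagged malaria parasites in RPMI 1640/Albumax erythrocyte culture, 37 C and 5% CO2. Inhibition is inferred from decreased luminescence after adding detection reagent.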
Potency means the concentration at half of the fitted maximal effect; tags describe the fitted curve by direction and shape.

SMILES | Potency
COc1ccc(/C=N/NC(=O)c2ccn[nH]2)cc1COc1ccc([N+](=O)[O-])c(C)c1 | inconclusive [inhibitor, full curve, poor fit]
COc1ccc(NC(=O)Cc2coc3cc(C)c(C(C)C)cc23)cc1S(=O)(=O)N1CCOCC1 | inconclusive [inhibitor, single point]
Cc1ccc2nc(N)[nH]c(=O)c2c1Sc1ccncc1 | active: 4.78 µM
COc1cccc(NC(=S)NCCc2ccccn2)c1 | inactive
Cc1nc2sc(C(c3ccc(Cl)cc3)N3CCOCC3)c(O)n2n1 (stereo not given) | inconclusive [inhibitor, full curve, poor fit]
CCOc1ccc(/C=N/Nc2cc(N3CCOCC3)nc(C)n2)c(O)c1 | inactive
COc1cc(C(=O)NCCC(=O)NC2CCCCCCC2)cc(OC)c1OC | inconclusive [inhibitor, partial curve, poor fit]
Cc1ccc(S(=O)(=O)N(Cc2cccnc2)Cc2cc3ccccc3[nH]c2=O)cc1 | inconclusive [inhibitor, partial curve]
CCSc1nc(-c2ccc(OC)cc2)ccc1C#N | inconclusive [inhibitor, single point]
COc1ccc2oc(C(=O)OCC(=O)N(Cc3ccccc3)C(C)C)c(C)c2c1 | inactive
CCN(CC)S(=O)(=O)c1ccc(C(C)NCC(=O)Nc2ccccc2C(=O)NC2CC2)cc1 (stereo not given) | active: 10.4 µM
COc1ccccc1COC(=O)c1ccc(S(=O)(=O)N2CCOCC2)cc1 | inconclusive [inhibitor, single point]
CC(=O)N1c2ccc(S(=O)(=O)N3CCC(C(=O)Nc4ccc(F)cc4)CC3)cc2CC1C (stereo not given) | inconclusive [inhibitor, partial curve, poor fit]
CCCCN(CCCNC(=O)C1CCN(S(=O)(=O)N2CCOCC2)CC1)c1ccccc1 | inconclusive [inhibitor, single point]
CCOC(=O)COc1ccc(C(=O)Nc2cccc(Cl)c2C)cc1 | inactive
Cc1cccc(CCNC(=O)CCNS(=O)(=O)c2cc(Br)cnc2N)c1 | inconclusive [inhibitor, partial curve]
COc1cccc(/C=N/NC(=O)c2ccc([N+](=O)[O-])cc2Cl)c1O | inconclusive [inhibitor, single point]
CC(C)C[C@H]1CN=C(N(C)C)N1CC1CCCCCC1 | active: 4.15 µM
Cc1c(OC(C)C(=O)NCC2CCC(C(=O)O)CC2)ccc2c1oc(=O)c1ccccc12 (stereo not given) | inactive
CN(C(=O)CSc1nnc(-c2ccc3c(c2)OCO3)o1)C1CCS(=O)(=O)C1 (stereo not given) | inconclusive [inhibitor, single point]
CN(C)c1nc(NC(C)(C)C)nc(SCC(=O)Nc2ccccc2)n1 | active: 14.7 µM
C=CCOc1ccccc1NC(=O)CN1C(=O)CNC1=O | inactive
O=C(O)C1=C[C@@H](C2CC2)C[C@@H](OCc2ccc(CO)cc2)O1 | inactive

SMILES | Potency
COc1cc(C2C(C#N)=C(N)Oc3cc(C)n(CCc4ccccc4)c(=O)c32)cc2c1OCO2 (stereo not given) | inconclusive [inhibitor, partial curve]
CCc1c(C)sc(NC(=S)N2CC(C)OC(C)C2)c1C(=O)OC (stereo not given) | inconclusive [inhibitor, full curve, poor fit]
Cc1ccc(/C=C2\CCC3=C2OC(N)=C(C#N)C3c2ccc(C)cc2)cc1 (stereo not given) | inconclusive [inhibitor, single point]
CC(C)(C)c1ccc(C(=O)N2CCCC2c2cccs2)cc1 (stereo not given) | active: 14.7 µM
Cc1ccc(O)c(CN2CCN(c3ccccc3)CC2)c1 | active: 2.62 µM
CC(NNC(=O)c1ccccc1)c1ccccc1 (stereo not given) | inactive
CCCc1[nH]nc2c1C(c1ccc(OCCN3CCOCC3)c(OCC)c1)C(C#N)=C(N)O2 (stereo not given) | inactive
Cc1ccc(-c2noc(CCC(=O)Nc3cccc(C#N)c3)n2)cc1 | inconclusive [inhibitor, single point]
N/C(=N\O)c1ccccc1-n1cccc1 | inconclusive [inhibitor, single point]
CCN(CC)CCOCCOC(=O)C(CC)(CC)c1ccccc1 (tested in a mixture with another compound) | active: 19 µM
COc1ccccc1NC(=O)Cc1noc(CSc2nnc(N)s2)n1 | inconclusive [inhibitor, single point]
Cc1cc2c(cc1S(=O)(=O)Nc1cccc(C)c1C)OCC(=O)N2 | inconclusive [inhibitor, partial curve, poor fit]
C=CCOc1nc(-c2ccncc2)nc2ccccc12 | active: 7.38 µM
COc1ccc(-n2cc(CNCCCN3CCCC3=O)c(-c3ccccc3Cl)n2)cc1 | inconclusive [inhibitor, single point]
CS(=O)(=O)Cc1cc(N2CCCC2)nc(-c2ccccc2)n1 | inactive
COc1ccc(-c2nc3ccccc3c(=O)n2O)cc1 | inconclusive [inhibitor, single point]
Cc1ccc(NC(=O)/C(=C\c2ccc([N+](=O)[O-])cc2)NC(=O)c2ccccc2)cc1 | inconclusive [inhibitor, partial curve]
COc1ccc(/C(C)=N/Nc2cc(C(F)(F)F)ccc2Cl)c(OC)c1 | inconclusive [inhibitor, single point]
CCCN(CC(=O)Nc1ccccc1OC)C(=O)c1cc(-c2ccccc2)nn1-c1ccccc1 | inconclusive [inhibitor, single point]
CCCCN(C(=O)CCn1c(=O)oc2ccccc21)c1ccccc1 | inconclusive [inhibitor, partial curve, poor fit]
COc1ccccc1OCC(=O)N/N=C/C=C/c1ccc([N+](=O)[O-])o1 | active: 4.15 µM
CCCN(C(=O)c1c(-c2ccccc2)noc1C)c1c(N)n(Cc2ccccc2)c(=O)[nH]c1=O | inconclusive [inhibitor, full curve, poor fit]
